Measured values taken from PubChem BioAssay AID588855 (National Center for Advancing Translational Sciences (NCATS), 2011).
Hit rate of the full screen: of about 410,000 compounds, about 5,000 (1.2%) were called active. The inconclusive results got no clear call from the source; some entries with a clear call stand among them for comparison. Calls follow the shape of the dose curve; as a rule, active = well fitted inhibition curve with a large enough effect; inconclusive = small, poorly fitted or top-dose-only effect; inactive = no such curve, though single readings can be large or run the other way. Potencies beside an inconclusive call are fits to weak or partial responses and may not hold up.

assay: qHTS for Inhibitors of TGF-b; details: HepG2 CAGA-GFP TGF-b/SMAD3 reporter, GFP fluorescence, 18 h, TGF-beta stimulated, 500 pg/mL final; series mostly up to 46.1 µM; activity, negative = inhibition: at the top concentration; also: nearly all actives have a fitted effect of over 65% in size
How it was run: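 Inhibition of TGF-beta-driven CAGA-GFP reporter expression in HEPG2 cells is measured by cellular GFP fluorescence after 18 h stimulation with 500 pg/mL recombinant TGF-beta in 1% FBS medium at 37 degrees C.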
% is scaled to controls: 0 for no effect and ±100 for the full control effect; potency is read from the fitted curve at half-maximal effect; tags tell the direction and shape of the fitted curve.

Row | Structure (SMILES) | activity, negative = inhibition | Potency
1 | Cc1ccccc1C(=O)Nc1cccc(NC(=O)c2cccnc2)c1 | inactive: 10.6% | –
2 | COc1ccc(C(=O)NCCc2cc3c(OC)ccc(OC)c3[nH]c2=O)cc1OC | inactive: 0.18% | –
3 | Cc1cc2c(cc1C)N(Cc1ccc(Cl)cc1)C1=NCCCN12 | – | inconclusive: 15.8 µM [inhibitor, single point]
4 | COc1ccc(-c2nc(NC(=O)c3cc(C(C)(C)C)nn3C)sc2C)cc1 | – | inconclusive: 35.5 µM [inhibitor, single point]
5 | Cc1nn(C(C)C(=O)Nc2ccccc2C(F)(F)F)c(=O)c2c1sc1ccccc12 (centres undefined) | inactive: 19.5% | –
6 | Cc1nc2nc(CNC(=O)c3cccc(F)c3)nn2c(C)c1CCC(=O)Nc1cccc(Cl)c1 | – | inconclusive: 25.1 µM [inhibitor, single point]
7 | COCCn1c2nc(=O)n(-c3ccccc3)c(=O)c-2nc2ccccc21 | – | inconclusive: 35.5 µM [inhibitor, single point]
8 | Cc1ccccc1NS(=O)(=O)c1ccc(C(=O)N2CCCCCCC2)cc1 | – | inconclusive: 35.5 µM [inhibitor, single point]
9 | COc1ccccc1N1CCN(Cc2cc(=O)oc3cc(C)ccc23)CC1 | inactive: -7.2% | –
10 | Cc1ccc(N(CC(C)C)S(=O)(=O)c2nnc(NC(=O)C(C)C)s2)cc1 | – | inconclusive: 2.51 µM [inhibitor, partial curve]
11 | CCN(C(=O)[C@@H]1CCCN1C(=O)c1cccs1)c1nc2cc(Cl)ccc2s1 | – | inconclusive: 14.1 µM [inhibitor, partial curve, poor fit]
12 | COc1ccc(NC(=O)c2nc(-c3ccc(C)cc3)n3c2CCCCC3)cc1 | – | inconclusive: 3.55 µM [inhibitor, full curve]
13 | COc1cccc(C(=O)N(Cc2nc(-c3ccc(Cl)cc3)no2)C(C)C)c1OC | – | inconclusive: 22.4 µM [inhibitor, single point]
14 | CCSc1nc2ccccc2c(OCc2ccccc2Cl)c1C(=O)OC | – | inconclusive: 7.08 µM [inhibitor, full curve, poor fit]
15 | O=S1(=O)c2ccc(Br)cc2N2CCC[C@H]2CN1Cc1ccccc1 | – | inconclusive: 35.5 µM [inhibitor, single point]
16 | COc1ccc(Oc2nc3c(c(=O)n(Cc4ccc(Br)cc4)c(=O)n3C)n2C)cc1 | inactive: 8.54% | –
17 | COc1cc(/C=C2\NC(=S)N(C)C2=O)ccc1O | inactive: 24.7% | –
18 | Cc1ccc(NC(=O)NN2CCN(C)CC2)cc1C | inactive: 1.72% | –
19 | O=C(CCS(=O)(=O)c1ccccc1)N(CCCN1CCOCC1)c1nc2c(F)cccc2s1 | – | inconclusive: 28.2 µM [inhibitor, single point]
20 | O=C(c1ccccc1)N1N=C(c2ccc(F)cc2)CC1(O)C(F)(F)F (centres undefined) | – | inconclusive: 15.8 µM [inhibitor, single point]
21 | O=C(c1ccc(N2CCN(C(=O)c3cccc(F)c3)CC2)cc1)c1cccc(F)c1 | – | inconclusive: 22.4 µM [inhibitor, single point]
22 | COc1ccc(C2=Nc3ccccc3NC(=O)C2N(Cc2ccc(F)cc2)C(=O)c2ccco2)cc1 (centres undefined) | – | inconclusive: 22.4 µM [inhibitor, single point]

Row | Structure (SMILES) | activity, negative = inhibition | Potency
23 | CCCCn1c(N)c(N(C)C(=O)c2ccccc2Oc2ccccc2)c(=O)[nH]c1=O | inactive: -10.7% | –
24 | CCOC(=O)C(C)NC(=O)c1c2c(nc3ccccc13)C(=O)N(C1CCCCC1)C2 (centres undefined) | – | inconclusive: 5.62 µM [inhibitor, single point]
25 | COc1ccc2c(c1)[N+](C)(C)C(C)(C)C=C2C | inactive: -2.58% | –
26 | COC(=O)CC1Oc2ccccc2-n2cc(-c3ccc(F)cc3)nc21 (centres undefined) | – | inconclusive: 31.6 µM [inhibitor, partial curve, poor fit]
27 | CCOC(=O)C1=C(COC(=O)CCOc2ccccc2)NC(=O)NC1C (centres undefined) | inactive: -2.65% | –
28 | Clc1ccccc1OCc1nnc(-c2ccccc2Br)o1 | inactive: -6.99% | –
29 | COc1cccc(CNC(=O)CNC(=S)N(Cc2ccccc2)Cc2ccccc2F)c1 | – | inconclusive: 11.2 µM [inhibitor, partial curve]
30 | Cc1cccc(N2CCN(C(=O)c3cc(=O)[nH]c4ccccc34)CC2)c1C | inactive: -12.5% | –
31 | O=C(O)c1cnc(N2CCOCC2)nc1 | – | inconclusive: 0.562 µM [inhibitor, partial curve, poor fit]
32 | CC(/C=C/c1ccc2c(c1)OCO2)=N/NC(=O)c1cccnc1 | inactive: -5.05% | –
33 | COC[C@H]1CCCN1[C@@H]1CS(=O)(=O)N[C@H]1COCc1ccccc1 | inactive: -24.3% | –
34 | CCc1cccc(C)c1NC(=O)CSc1nc2ccccc2nc1Cc1ccccc1 | – | inconclusive: 3.16 µM [inhibitor, single point]
35 | COc1cccc(C(NC(C)=O)c2nc(-c3ccc4ccccc4c3)cs2)c1 (centres undefined) | – | inconclusive: 10 µM [inhibitor, single point]
36 | CCc1cc(/C(Cc2ccc3ccccc3n2)=N\O)c(O)cc1O | – | inconclusive: 35.5 µM [inhibitor, single point]
37 | N#Cc1ccc(OCC(=O)Nc2cccc(S(=O)(=O)NC3=NCCCCC3)c2)cc1 | – | inconclusive: 12.6 µM [inhibitor, partial curve, poor fit]
38 | N#Cc1cc(-c2ccccc2)nnc1Oc1ccccc1Cl | – | inconclusive: 3.98 µM [inhibitor, partial curve, poor fit]
39 | CC(C)(C)OC(=O)N1CCC(c2c(C(=O)N3CCN(Cc4ccccc4)CC3)cnn2-c2cccc(Cl)c2)CC1 | inactive: -10.8% | –
40 | COc1ccc(Cn2c(CO)cnc2SCc2ccc(C)cc2)cc1 | – | inconclusive: 10 µM [inhibitor, partial curve]
41 | Cc1ccc(CN2C(=O)C(CC(C)C)Nc3ncnc(N4CCN(c5ccccn5)CC4)c32)cc1 (centres undefined) | – | inconclusive: 22.4 µM [inhibitor, single point]
42 | CCCOC(=O)c1ccc(Oc2cn[nH]c2-c2ccc(OCC(=O)NN)cc2O)cc1 | – | inconclusive: 10 µM [inhibitor, partial curve, poor fit]
43 | Cc1onc(-c2ccc(Cl)cc2)c1-c1ccnn1S(=O)(=O)c1ccc(Cl)cc1 | – | inconclusive: 35.5 µM [inhibitor, single point]
44 | Cc1ccccc1NC(=O)c1ccc(OCc2c(C)noc2C)cc1 | – | inconclusive: 6.31 µM [inhibitor, full curve]
